The other results are listed elsewhere or left out.

The assay concerns PfHDP1 homeodomain (GST-tagged). Kind of assay: gcPBM binding intensity (ln(normalized median fluorescence intensity)); higher = stronger DNA binding. The procedure, abridged:
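Binding of GST-tagged P. falciparum DNA-binding domains, expressed in E. coli and used at about 25 μg on average, was carried out for 1 h in 1× PBS containing 1% milk, 0.2 mg/ml BSA, 0.5% salmon testes DNA and 0.03% Triton X-100. The target was an Agilent 4 × 180k array of primer-extended double-stranded 36-bp intergenic genomic probes plus negative controls, read with Alexa488 anti-GST antibody at 488 nm. Binding intensity is the highest Masliner-normalised natural-log median intensity across replicate spots of either probe orientation.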
As to “CATACATATATATATACACACATACATATATATACA [CACACA_site8165]”, the “gcPBM binding intensity (ln)” value is 6.93.
“ATTCGTGAACTAGCCAAACACACGAAAAAAAAAAAA [CACACA_site3342]”: the “gcPBM binding intensity (ln)” value amounted to 6.28.
Under “ATGTAACATAGGAAATGTACATATAAATATAATTTA [XGTACX_site6452]” stands 6.48; under “TTTTATTGATTATTCATAAATATGCTATTCATCTAA [CACACA_negctrl_site1084]”, 5.99.
Under “TATTTTGTTCTTTCCACACACAAATACCTATCTTGT [CACACA_site7833]” stands 7.11.
Next, “GCTATTTATTTATATTGTACTTTTTTTTTTTTTTTT [XGTACX_site3624]”: 6.53; “TTTTTTTTTTGATGTTGTACATATATATTATATAAT [XGTACX_site2765]”: 6.59.
With “TTAACAAATAGACACACACACACACGCAAAAAAAAA [CACACA_site6387]”, the “gcPBM binding intensity (ln)” value came to 6.81.
Next, “TTTTTTTTTCATTATTGTACATTGAAACTTCATTTT [XGTACX_site6041]”: 6.6; “ATATATATATTTACATGTACACATCTATATATAAAC [XGTACX_site5581]”: 7.97.
Take “AAAAAAAAAAAATGTGCATGCTATATATATATATAT [TGCATGCA_site727]”: the “gcPBM binding intensity (ln)” value came out at 9.5.
In the case of “TAAAAACAAAAATGTTGTACATAATATAAAACAATT [XGTACX_site6380]”, the “gcPBM binding intensity (ln)” value turned out to be 6.07.
Under “CACACAATGGCTAGCTGTACATAATATATATCTACA [XGTACX_site4691]” stands 6.45; under “GAAAATAAAATAAATGCATGTAAATTTAATGTAATG [TGCATGCA_site996]”, 6.88; under “TATATAAATATACAAACACACATACAAACATATATA [CACACA_site4754]”, 6.96.
In the case of “AAAAAAAACGAACACACACACAAATATGTAAAAATA [CACACA_site6673]”, the “gcPBM binding intensity (ln)” value came out at 6.84.
Next, “TCTCTAACTTTTAATACACACAAATAAATAAATAAA [CACACA_site6245]”: 6.61; “GTTTTATTTATTTCATGTACACAAAAAAGGTTTTAA [XGTACX_site6525]”: 6.97.
Turning to “TACATACATACATACACACACACATATAAATACATA [CACACA_site4626]”, the “gcPBM binding intensity (ln)” value stood at 7.74.
Next, “AAAATAAAATAATAAAATAAAATAATAATAAAATAA [TGCATGCA_negctrl_site401]”: 6.27.
On to “AATACATATATATATTGTACATATAGGGAAAAATTA [XGTACX_site2275]”, for which the “gcPBM binding intensity (ln)” value stood at 6.75.
With “GTGGGAAACATAAACACACACAAAAAGAAAAAATAG [CACACA_site4810]”, the “gcPBM binding intensity (ln)” value stood at 6.81.
Under “GAATATAAACATATTACACACATCTATCTGTACATT [CACACA_site5114]” stands 6.5; under “TGGTATCAAAAGAATACACACACACCGACATATATA [CACACA_site9265]”, 6.75; under “AAATTTATATAAAACAGTACAATTAAAAAAAAAATA [XGTACX_site8015]”, 6.52.
“ATTTTTTTATAAAATTTTTTATATATTAAATATTAT [CACACA_negctrl_site135]”: the “gcPBM binding intensity (ln)” value came to 6.22.
Next, “ACGTTTTATTTTTATTGTACTCACATTGAAATGAAT [XGTACX_site6094]”: 6.93.
Next, “TTTGTAATAACATATGCATGTTCAAAAAATAAAATA [TGCATGCA_site817]”: 6.51.
On to ATTTTTTTTGTAAAAGTGCATATATATATATATATA, for which the “gcPBM binding intensity (ln)” value came to 9.84.
Next, “ATATATTTATACATTTGTACATATACATATTTCTGA [XGTACX_site3982]”: 6.5; “AAAATTGTGCTTTCACGGACACAAGATCGAAATAGA [XGTACX_site4068]”: 6.61; “GAAACGTTTTTGAGTAGTACACACACAATAAGGATG [XGTACX_site6809]”: 7.19.
Take “ATATAAATATAAACATGTACATATATATATATATAT [XGTACX_site2824]”: the “gcPBM binding intensity (ln)” value is 9.44.
Turning to “TAATAATAATATAAAATACACACCTATTATTTTTAC [CACACA_site4003]”, the “gcPBM binding intensity (ln)” value stood at 6.47.
In the case of “CATGATATATAAATATGTACATATATATATATATAT [XGTACX_site1760]”, the “gcPBM binding intensity (ln)” value was found to be 9.48.
Next, “CAATATTATTATATTTGTACACATGCGTATTTTTTA [XGTACX_site4154]”: 6.57.
Consider “ATATTATGTGATTGTGCACACTGGAGATTTTTTTTA [CACACA_site1453]”, for which the “gcPBM binding intensity (ln)” value is 11.2.
As to “CCCGTAAATACAAAAAGTACAAAAGTTCATCTTATA [XGTACX_site1154]”, the “gcPBM binding intensity (ln)” value came out at 6.35.
Regarding “TTAATATTGTATCCAAGTACACAAATTATTATATTT [XGTACX_site8067]”, the “gcPBM binding intensity (ln)” value came to 6.31.
Turning to “AAAAATATAAACTGCACACACAAAAAAAAAAGAGAA [CACACA_site1367]”, the “gcPBM binding intensity (ln)” value turned out to be 7.57.
For the sequence “ACATTAATATAAAGCACACATATATATAATATATAT [CACACA_site508]”, the “gcPBM binding intensity (ln)” value turned out to be 6.64.
Next, “ATTGATTTTTAATATACACACATAAGTACCACAAAA [CACACA_site339]”: 6.91; “TATAACATATTTATATATGACATTATCTATTCATTT [CACACA_negctrl_site864]”: 6.16.
As to “ATATATATATATGTGTGTACTTATTTATTTATTTGT [XGTACX_site549]”, the “gcPBM binding intensity (ln)” value turned out to be 9.15.
Under “TAATAAATCCTATATAGTACATATATGCAAGTATGT [XGTACX_site3955]” stands 6.97.
Under “TTTTCTTAATATTTATGTATATATATAATATGATAT [TGCATGCA_negctrl_site572]” stands 6.32; under “ATGTAACACATATTTGGTACAGATAGATAAAAGTAT [XGTACX_site8291]”, 6.9.
With “TTTTTAAATAACCTATATATTATTATGAAACATAAA [CACACA_negctrl_site916]”, the “gcPBM binding intensity (ln)” value worked out at 6.
Consider “GTATAATATATTTATAGTACATAATTATTTATAAAT [XGTACX_site1826]”, for which the “gcPBM binding intensity (ln)” value was 6.31.
Under “TATATATATATATTCACACATAAAAATAAAATAAAA [CACACA_site4774]” stands 8.8; under “AATTTAAATTCATCACGTACATACGTGAATATACAC [XGTACX_site5220]”, 6.56.
In the case of “TTATTTGTTTAATATGCATGCTAAAAGGGTTGATGT [TGCATGCA_site581]”, the “gcPBM binding intensity (ln)” value amounted to 6.94.
“ATTTTACATATTTGCACACATATATTTATATACATA [CACACA_site854]”: the “gcPBM binding intensity (ln)” value amounted to 10.6.
Under “AATATAAAAATGCACACACACAAAAAAAAAAAAAAA [CACACA_site6546]” stands 9.21; under “GAGTAAAACAAATATACACACCATAAAGTTATAAAA [CACACA_site5008]”, 6.42.
Under “TTAAAATAAAGAGCAGTGCGCATATTTTGTTATTAT [GTGCAC_site9753]” stands 7.08.
Next, “ATAAAAAAATATGTAAACATATATATGTATTTATGT [CACACA_negctrl_site1517]”: 6.35.
For the sequence “TTTTTTTTTAAAGAAAATAAAAATATGTACTTGACA [CACACA_negctrl_site1113]”, the “gcPBM binding intensity (ln)” value is 6.05.
As to “AAACAATTTTTATTTTGTACATAACAATATATTTAT [XGTACX_site1375]”, the “gcPBM binding intensity (ln)” value stood at 6.31.
Next, “TTTTTATATTTTATTAGTACTTATTATATATATAAT [XGTACX_site4900]”: 6.51; “CATAAAAATGTATCAAGTACACATTTATTTATCCAT [XGTACX_site152]”: 6.06; “TACAGATAAAAGTACACACACACACCGATATATATA [CACACA_site4675]”: 6.96.
As to “GTATAACACAAGTGAAGTACAGGGGTAAACATTTAT [XGTACX_site3203]”, the “gcPBM binding intensity (ln)” value was 6.56.
As to “AATCCATTCTATTTTTTACACACGTATGTAAATATT [CACACA_site8860]”, the “gcPBM binding intensity (ln)” value was 6.75.
Next, “TGAGAAAGCGCATATTGTACTATATATTTTAACCAC [XGTACX_site4098]”: 6.76.
Next, “GAAAATAATGTTACATGTACGAATATGTAACTATTG [XGTACX_site6833]”: 6.16.
Under “AATATATATGGACATGCATGGACATAATAATCTATT [TGCATGCA_site838]” stands 6.47; under “AAATACATATATACATGTACATAAATATATATATAT [XGTACX_site5367]”, 8.77.
With “ATAGATATACATATCACACATATATATATATATATA [CACACA_site4985]”, the “gcPBM binding intensity (ln)” value was determined as 9.4.
Under “TAAGGTAGTTCTGTATCACACACATATATATATATA [CACACA_site8693]” stands 9.16; under “ATTAAATAAAATCATGCACACAATATATATTTTAAG [CACACA_site2495]”, 8.9.
Under ATAAGCATCTTTTGTGTGCACATAACAAAAAAAAAA stands 10.2; under “TTTAAAATATTGTATTGTACGCAATAAAAAATACCA [XGTACX_site182]”, 6.45; under “TCTAACATATCTTTAATACACACTTAAAAAAGTACT [CACACA_site652]”, 6.38.
With “ATAAAAAAATATAAATGTACATATATATATATATAT [XGTACX_site5620]”, the “gcPBM binding intensity (ln)” value stood at 9.45.
Take “GATATACAATTTAAGTGTACTATAATAAAATATATA [XGTACX_site3013]”: the “gcPBM binding intensity (ln)” value is 6.36.
“ATTTATCTATATATATGTACATATTATTTTTGTGGT [XGTACX_site7390]”: the “gcPBM binding intensity (ln)” value was found to be 6.8.
Take “TATATTAATTCGTTTTGTACACACATAATGAATAAT [XGTACX_site4618]”: the “gcPBM binding intensity (ln)” value came to 6.14.
Regarding “TATGTAATAAATAGTACACACACACCGATATATATA [CACACA_site8389]”, the “gcPBM binding intensity (ln)” value came to 7.13.
Next, “AAAAAAAAAAAATACACACACATATATATATATATA [CACACA_site2224]”: 9.24; “TATAATAATATTATAGTGCATATTATTTATATATAA [GTGCAC_site9820]”: 7.97; “ATTTTAATACTTTTATATTAAATGTAGCACATCATA [XGTACX_negctrl_site273]”: 6.26.
For the sequence “AAAAAGTGATTAAAATGTACAAAATGCATAAAAGAA [XGTACX_site6625]”, the “gcPBM binding intensity (ln)” value came to 8.15.
As to “GATATGTTAAATATATGTACATATATAAACCCAAAC [XGTACX_site6601]”, the “gcPBM binding intensity (ln)” value was determined as 7.08.
Next, “AAAGTAAAAAAAAAAACATGCATACGCTAATTTTTA [TGCATGCA_site301]”: 5.76.
Turning to “TTATTTATTTAGTAGTGTACTTTTTATATTTATAAT [XGTACX_site5978]”, the “gcPBM binding intensity (ln)” value is 6.36.
Next, “CATTTTTTGCTTTCAACACACATACAATATAAATAA [CACACA_site7858]”: 6.89.
For “TTTAATATGAATTTATGTACATATATATATATATAT [XGTACX_site6337]”, the “gcPBM binding intensity (ln)” value is 9.27.
“TATATTAAAAAAAAATGTACATATATATAATATATA [XGTACX_site1935]”: the “gcPBM binding intensity (ln)” value was found to be 6.8.

Values taken from the supplement of paper PMC11417369.
